In the supplement of paper PMC11417369:
The other results are listed elsewhere or left out.

What follows are sequences tested on PF3D7_0420300 AP2 domain 1 (GST-tagged) (assay: gcPBM binding intensity (ln(normalized median fluorescence intensity)); higher = stronger DNA binding).
Outline: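 GST-tagged P. falciparum DNA-binding domains produced in E. coli were incubated for 1 h on an Agilent 4 × 180k array of primer-extended double-stranded 36-bp intergenic genomic probes with negative controls. Binding intensity is the highest Masliner-normalised natural-log median intensity across replicate spots of either probe orientation, with bound protein detected by Alexa488 anti-GST antibody at 488 nm.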

Row | Sequence | gcPBM binding intensity (ln)
1 | ATATTAATTTTTATTACACACTCTCAATTTTTATTT [CACACA_site58] | 9.5
2 | GTTTAACTGTTTTATACACACAATGTATCCAATAAA [CACACA_site5612] | 9.49
3 | TTTTAGTTAATTCATGCATGTAAAGTTTTATTTATA [TGCATGCA_site252] | 9.15
4 | AAAAAAAAAAAAAAAGTACACACTTTTGCGTACATG [CACACA_site3097] | 9.22
5 | ATGTCTATATATTAAGGTACACATATATGCTATTCA [XGTACX_site6008] | 9.35
6 | TATATATTAAAAATAGTGCAAAATAATATATATATA [GTGCAC_site9716] | 9.44
7 | AATACCTTTTAATAATGTACAAACAAAAATTAGAGA [XGTACX_site6850] | 9.31
8 | AAGGGGAGAAAAATAAACGAAATATATACATACATA [XGTACX_negctrl_site88] | 9.42
9 | ATATATATATATATATGTACATATTCATCTTATTCT [XGTACX_site1537] | 9.44
10 | ACAAATAAATATATATGTACATATATTTTTTTATTT [XGTACX_site2989] | 9.13
11 | TTTTATTTATATTATACACACAAGGAAAAAAAAAAA [CACACA_site7690] | 9.32
12 | TTTATGCACGCGTGCACACACATATGAAAAAAGGTA [CACACA_site3315] | 9.74
13 | TATGTTTAAATATATTGTACGCACGTATGTTTTTAA [XGTACX_site1108] | 9.19
14 | TTTTATTATTTATATACACACTTGCTGAAATGTTAT [CACACA_site5919] | 9.46
15 | TATATACAAATATGCTGTACAAAAAAAAAAAAAAAA [XGTACX_site4732] | 8.85
16 | TATAATAATAATGATAGTACGTATGAGTTCAAAAAA [XGTACX_site608] | 9.43
17 | CGGTATTTTTTAATTTGTACGCATATACAATAATTA [XGTACX_site8603] | 9.18
18 | TTTTTTATTTTAATGTATTATTTTTATGTAATATAT [GTGCAC_negctrl_site391] | 9.23
19 | GATATGATTACCTTATGGTGTTTTTGATGGATAGTT [CACACA_negctrl_site1504] | 9.4
20 | TTATGGAACCCCATTCGTACATAAATATTTTATATA [XGTACX_site7112] | 9.08
21 | GTATAATATGAACACACACACACACCCAAAAAAAAA [CACACA_site5152] | 10.2
22 | ATACATATTAACAAGGTGCAAATGGATTTCATAAAA [GTGCAC_site9775] | 9.39

Row | Sequence | gcPBM binding intensity (ln)
23 | TTTTTTTTTTTGTGAGTGCACGTATGAAGAGAAAAA | 8.85
24 | TATTTATATTTATATACACACTATATAACTCAAACA [CACACA_site6611] | 9.27
25 | AATTGTTCGATATATGCACACAGTTTTGTTATTTTT [CACACA_site1615] | 9.7
26 | TATATAACTTTATTTTTCTTTACTTATTTTATTTTA [GTGCAC_negctrl_site66] | 9.32
27 | CTAGCAAATACATACACACACACACGGATACCTATA [CACACA_site7609] | 10.2
28 | AAAGAAAAAAAAAAAAGTACATAAATATAAAAAGAA [XGTACX_site6753] | 9.37
29 | TTTTTTAAAATATATATAATGAATTTTTTTTTTTTT [CACACA_negctrl_site1577] | 8.73
30 | ATATATATATATATATGTACATATTATTAATAATAT [XGTACX_site6667] | 9.21
31 | TATTTCACAACTTGTCGTACATTAATTGTATTATTT [XGTACX_site997] | 9.51
32 | TATATAACTGTCTTCACACACACATATAAATAAATA [CACACA_site7317] | 9.77
33 | ATTATTATTAATAGTACACACTATGGCATTTCAATA [CACACA_site5388] | 9.39
34 | TTAGGTGTATATAATTGTACATTTTGGAAATTATAC [XGTACX_site5492] | 9.12
35 | ATCTTTCATCTACCAAGTACAAATTACTTTTTTTTT [XGTACX_site7001] | 9.51
36 | TCTTATTTAAAAATAGCACACATTATGTATATATAT [CACACA_site2822] | 9.25
37 | AGCTCGGAAAAATTAGCATGCAAAAAAAAAAAAAAA [TGCATGCA_site658] | 8.63
38 | TGAAACCATAAAGAATGTACACAGCGGTATAAGTTA [XGTACX_site674] | 9.4
39 | TTAATATATTTAAATATATATAAAATATATAATATG [CACACA_negctrl_site880] | 8.91
40 | TTTTAAATAATACATACATGCATATATACACATATA [TGCATGCA_site8] | 9.14
41 | AATAAAATAAGAAGCACACAAATATTATATATAAAA [CACACA_site3980] | 9.64
42 | TTTTGGAATTTTAGCTGTACTTTTCCTATTTTGTAT [XGTACX_site7679] | 9.54
43 | TTCTTTTCTTCTACATGTACAAATATTATATATATA [XGTACX_site2996] | 9.44
44 | TATTAATTTATATCAACACACAAAATCAATATACTT [CACACA_site1757] | 9.54
